Whole data set: some 2,900 compounds, median “IRF Lucia reporter activity, fold change vs agonist alone” near 0.9, cut for the highest 2% near 2.8. This is one part of the list.
Experiments:
[1] = system: RAW-Dual; assay: IRF Lucia reporter activity, fold change vs agonist alone; higher = enhanced IRF activity; conditions: library stock concentration (final ~1000-fold dilution): 10 mM, agonist: MPLA (TLR4) […]
Summary of the method: (§1)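 RAW-Dual macrophages were seeded in DMEM at 50,000 cells/well in 384-well plates, given 50 nL of library stock by pin tool, and given a PRR agonist 1 h later. Plates were held at 37 °C, 5% CO2 for 20 hours, after which supernatant was read for IRF by QuantiLuc luminescence and for NF-κB by QuantiBlue absorbance at 620 nm. Reporter activity is expressed as fold change over wells that received agonist alone. A well was called cytotoxic when IncuCyte confluency fell below 70% of agonist controls in both mask sets.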

[2] = system: RAW-Dual; assay: IRF Lucia reporter activity, fold change vs agonist alone; cytotoxicity flag (confluency mask): not cytotoxic; higher = enhanced IRF activity
Summary of the method: as §1

[3] = system: RAW-Dual; assay: IRF Lucia reporter activity, fold change vs agonist alone; cytotoxicity flag (confluency mask): cytotoxic (confluency <70% of control); higher = enhanced IRF activity
Summary of the method: as §1

[4] = cytotoxicity flag (confluency mask): not cytotoxic
[5] = agonist: 3'3'-cGAMP (STING) 10 ug/mL

In the case of `Nc1c(Br)cc(Br)cc1CNC1CCC(O)CC1` (centres undefined), the “IRF Lucia reporter activity” value [1, 4] is reported as 0.85.
With `CC(N)C12CC3CC(CC(C3)C1)C2` (centres undefined) the “IRF Lucia reporter activity” value [1, 4] was 0.919.
In the case of `CC(N)C12CC3CC(CC(C3)C1)C2` (centres undefined) (library stock concentration (final ~1000-fold dilution): 10 mM), the “IRF Lucia reporter activity” value [2, 5] is reported as 1.04 and the “IRF Lucia reporter activity” value ([2]; agonist: LPS (TLR4) 0.1 ug/mL) is reported as 0.96.
`N#Cc1ccc(Oc2ccc3c(c2)COB3O)cc1` was tested, and the “IRF Lucia reporter activity” value [1, 4] was 1.08.
With `N#Cc1ccc(Oc2ccc3c(c2)COB3O)cc1` (library stock concentration (final ~1000-fold dilution): 10 mM) the “IRF Lucia reporter activity” value [2, 5] was 0.977 and the “IRF Lucia reporter activity” value ([2]; agonist: LPS (TLR4) 0.1 ug/mL) was 1.46.
`C=CC(=O)N1CC(N2CCN(C(=O)CNc3cc(C4(C)CC4)c(Cl)cc3O)CC2)C1` (library stock concentration (final ~1000-fold dilution): 10 mM) was tested, and the “IRF Lucia reporter activity” value [2, 5] was 0.269 and the “IRF Lucia reporter activity” value ([2]; agonist: LPS (TLR4) 0.1 ug/mL) was 0.547.
`CCCCCCOC(=O)N=C(N)c1ccc(NCc2nc3cc(C(=O)N(CCC(=O)OCC)c4ccccn4)ccc3n2C)cc1` (library stock concentration (final ~1000-fold dilution): 10 mM) was tested, and the “IRF Lucia reporter activity” value [2, 5] was 0.764 and the “IRF Lucia reporter activity” value ([2]; agonist: LPS (TLR4) 0.1 ug/mL) was 1.22.
With `CCCCCCOC(=O)N=C(N)c1ccc(NCc2nc3cc(C(=O)N(CCC(=O)OCC)c4ccccn4)ccc3n2C)cc1` the “IRF Lucia reporter activity” value [1, 4] was 1.09.
In the case of `O=C(O)CC[C@@H](O)C(=O)O` (library stock concentration (final ~1000-fold dilution): 10 mM water), the “IRF Lucia reporter activity” value [2, 5] is reported as 1.24 and the “IRF Lucia reporter activity” value ([2]; agonist: LPS (TLR4) 0.1 ug/mL) is reported as 0.813.
`CC(C)(C)c1cc(O)ccc1O` (library stock concentration (final ~1000-fold dilution): 10 mM) was tested, and the “IRF Lucia reporter activity” value [2, 5] was 0.278 and the “IRF Lucia reporter activity” value ([2]; agonist: LPS (TLR4) 0.1 ug/mL) was 0.548.
`C[C@H]1O[C@@H](O[C@H]2CC[C@@]3(C)[C@@H](CC[C@]4(C)[C@@H]3C=C[C@]35OC[C@@]6(CCC(C)(C)C[C@H]63)[C@H](O)C[C@]54C)[C@]2(C)CO)[C@H](O)[C@@H](O[C@@H]2O[C@H](CO)[C@@H](O)[C@H](O)[C@H]2O)[C@H]1O` (library stock concentration (final ~1000-fold dilution): 10 mM) was tested, and the “IRF Lucia reporter activity” value [3, 5] was 0.101 and the “IRF Lucia reporter activity” value ([3]; agonist: LPS (TLR4) 0.1 ug/mL) was 0.0686.
`CN(C)c1ccc2c(c1)Sc1cc(N(C)C)ccc1N2` (library stock concentration (final ~1000-fold dilution): 10 mM) was tested, and the “IRF Lucia reporter activity” value [2, 5] was 0.0324 and the “IRF Lucia reporter activity” value ([2]; agonist: LPS (TLR4) 0.1 ug/mL) was 0.632.
For `CCCc1nc(C(C)(C)O)c(C(=O)O)n1Cc1ccc(-c2ccccc2-c2nnn[nH]2)cc1`, the “IRF Lucia reporter activity” value [1, 4] was 1.06.
In the case of `CCCc1nc(C(C)(C)O)c(C(=O)O)n1Cc1ccc(-c2ccccc2-c2nnn[nH]2)cc1` (library stock concentration (final ~1000-fold dilution): 10 mM), the “IRF Lucia reporter activity” value [2, 5] is reported as 1.02 and the “IRF Lucia reporter activity” value ([2]; agonist: LPS (TLR4) 0.1 ug/mL) is reported as 0.811.
For `CN(C)CC1CCn2cc(c3ccccc32)C2=C(C(=O)NC2=O)c2cn(c3ccccc23)CCO1.Cl` (centres undefined) (library stock concentration (final ~1000-fold dilution): 10 mM), the “IRF Lucia reporter activity” value [3, 5] was 0.0473 and the “IRF Lucia reporter activity” value ([3]; agonist: LPS (TLR4) 0.1 ug/mL) was 0.188.
In the case of `CC(NC(=O)CCc1nc2ccccc2c(=O)[nH]1)c1ccccc1` (centres undefined) (library stock concentration (final ~1000-fold dilution): 10 mM), the “IRF Lucia reporter activity” value [2, 5] is reported as 1.08 and the “IRF Lucia reporter activity” value ([2]; agonist: LPS (TLR4) 0.1 ug/mL) is reported as 0.893.
For `CC(NC(=O)CCc1nc2ccccc2c(=O)[nH]1)c1ccccc1` (centres undefined), the “IRF Lucia reporter activity” value [1, 4] was 0.927.
`COc1nc(-c2ccc3c(c2)OCO3)n(-c2ccc(NC(=O)CSc3ccccc3)cc2)n1` (library stock concentration (final ~1000-fold dilution): 10 mM) was tested, and the “IRF Lucia reporter activity” value [2, 5] was 0.59 and the “IRF Lucia reporter activity” value ([2]; agonist: LPS (TLR4) 0.1 ug/mL) was 1.14.
For `Cl.Clc1cccc(-c2nnnn2Cc2cccnc2)c1Cl` (library stock concentration (final ~1000-fold dilution): 10 mM), the “IRF Lucia reporter activity” value [2, 5] was 0.707 and the “IRF Lucia reporter activity” value ([2]; agonist: LPS (TLR4) 0.1 ug/mL) was 0.829.
In the case of `CCS(=O)(=O)Nc1ccc2c(c1)/C(=C(/Nc1ccc(CN3CCCCC3)cc1)c1ccccc1)C(=O)N2` (library stock concentration (final ~1000-fold dilution): 10 mM), the “IRF Lucia reporter activity” value [3, 5] is reported as 0.0206 and the “IRF Lucia reporter activity” value ([3]; agonist: LPS (TLR4) 0.1 ug/mL) is reported as 0.0188.
In the case of `CCS(=O)(=O)Nc1ccc2c(c1)/C(=C(/Nc1ccc(CN3CCCCC3)cc1)c1ccccc1)C(=O)N2`, the “IRF Lucia reporter activity” value ([1]; cytotoxicity flag (confluency mask): cytotoxic (confluency <70% of control)) is reported as 0.0174.
For `CCOC(=O)C(CCc1ccccc1)NC1CCc2ccccc2N(CC(=O)O)C1=O.Cl` (centres undefined), the “IRF Lucia reporter activity” value [1, 4] was 0.964.
For `CCOC(=O)C(CCc1ccccc1)NC1CCc2ccccc2N(CC(=O)O)C1=O.Cl` (centres undefined) (library stock concentration (final ~1000-fold dilution): 10 mM), the “IRF Lucia reporter activity” value [2, 5] was 0.935 and the “IRF Lucia reporter activity” value ([2]; agonist: LPS (TLR4) 0.1 ug/mL) was 1.03.
In the case of `O=C(Nc1ccc(-c2ccnc(Nc3ccc(N4CCOCC4)cc3)n2)cc1)C1CCCN1` (centres undefined) (library stock concentration (final ~1000-fold dilution): 10 mM), the “IRF Lucia reporter activity” value [2, 5] is reported as 0.0117 and the “IRF Lucia reporter activity” value ([2]; agonist: LPS (TLR4) 0.1 ug/mL) is reported as 0.0373.
With `O=C(Nc1ccc(-c2ccnc(Nc3ccc(N4CCOCC4)cc3)n2)cc1)C1CCCN1` (centres undefined) the “IRF Lucia reporter activity” value [1, 4] was 0.04.
For `COc1ccc2[nH]c([S+]([O-])Cc3ncc(C)c(OC)c3C)nc2c1` (centres undefined) (library stock concentration (final ~1000-fold dilution): 10 mM), the “IRF Lucia reporter activity” value [2, 5] was 0.925 and the “IRF Lucia reporter activity” value ([2]; agonist: LPS (TLR4) 0.1 ug/mL) was 0.957.
`COc1ccc2[nH]c([S+]([O-])Cc3ncc(C)c(OC)c3C)nc2c1` (centres undefined) was tested, and the “IRF Lucia reporter activity” value [1, 4] was 0.713.
